According to PubChem BioAssay AID2202238 (Ras Initiative Chemistry Research Team, Frederick National …, 2025):
Some of the results follow. Further columns of the screen follow, without active or inactive calls.

Biological target: GTPase KRas (Homo sapiens) (UniProt P01116)
Assay: Fragment capture on engineered cysteines, share of protein labelled (AID 2202238)
Set-up: protein at 5 µM with 500 µM competing thiol for 1.5 h
Conditions: KRAS G12D cysteine mutants, disulfide tethering, MALDI-TOF labeling, stronger effect = higher value, fragment at 500 µM
[1] = measured here: G60C mutant labeling
[2] = measured here: G75C mutant labeling
[3] = measured here: H94C mutant labeling
[4] = measured here: I36C mutant labeling
[5] = measured here: L120C mutant labeling
[6] = measured here: M67C mutant labeling
[7] = measured here: M72C mutant labeling
[8] = measured here: N26C mutant labeling
[9] = measured here: N86C mutant labeling
[10] = measured here: P121C mutant labeling
[11] = measured here: S122C mutant labeling
[12] = measured here: S136C mutant labeling

UniProt P01116, sequence (P01116 whole entry, looked up, the tested form may be a part): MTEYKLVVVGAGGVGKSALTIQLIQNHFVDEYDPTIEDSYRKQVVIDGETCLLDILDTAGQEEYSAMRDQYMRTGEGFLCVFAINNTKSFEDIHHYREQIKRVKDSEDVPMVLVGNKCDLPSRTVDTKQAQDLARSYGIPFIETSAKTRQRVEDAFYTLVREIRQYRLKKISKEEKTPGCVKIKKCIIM

| SMILES | percent labeling [1] [%] | percent labeling [2] [%] | percent labeling [3] [%] | percent labeling [4] [%] | percent labeling [5] [%] | percent labeling [6] [%] | percent labeling [7] [%] | percent labeling [8] [%] | percent labeling [9] [%] | percent labeling [10] [%] | percent labeling [11] [%] | percent labeling [12] [%] |
| --- | --- | --- | --- | --- | --- | --- | --- | --- | --- | --- | --- | --- |
| Cc1cc(Br)cc2cc(C(=O)NCCS)oc12 | 22.8 | 13.1 | 16.6 | 10 | 11.4 | 9.7 | 36.4 | 27.5 | 12.7 | 13.6 | 6 | 15 |
| O=C(Cc1csc(N2CCCC2=O)n1)NCCS | 46 | 13.8 | 37.4 | 28.5 | 49.4 | 35.5 | 23.9 | 41.7 | 24.7 | 33.4 | 33.2 | 42.2 |
| O=C(CCS)N1CCC(c2ncc(-c3ccc(F)c(F)c3)[nH]2)CC1 |  | 18.4 | 24.2 | 23.3 | 17.1 | 34.1 | 22.2 |  | 23.2 | 17.7 | 8.5 | 28.8 |
| COc1ccc2nc(C)c(C(=O)NCCS)n2n1 | 37.7 | 31.4 | 50.2 | 20.3 | 27.7 | 47.6 | 58 | 43.1 | 18.2 | 24.3 | 23.5 | 43.8 |
| O=C(CCS)Nc1ccc(-c2n[nH]c3c2COCC3)cc1 |  | 7.6 | 20.9 | 31.1 | 14.8 | 18.4 | 42.5 |  | 17 | 14 | 13 | 29.5 |
| O=C(NCCS)C1CCN(S(=O)(=O)c2ccc3[nH]c(=O)sc3c2)CC1 | 33.3 | 14.5 | 17.4 | 19.9 | 17.1 | 18.9 | 30.8 | 38.6 | 16.1 | 20.5 | 18.2 | 23.3 |
| O=C(NCCS)c1ccnc2cc(Cl)ccc12 | 33.2 | 15.4 | 15.5 | 12.7 | 13.1 | 16.9 | 43.6 | 38.2 | 11.7 | 19.1 | 10.7 | 23.7 |
| O=C(CCS)N(CC(F)F)C1CCCCC1 |  | 29.4 | 28.1 | 25 | 19 | 20.5 | 47 |  | 22.8 | 22.9 | 24.1 | 43.1 |
| CN(C(=O)c1cccc(C(=O)NCCS)c1)c1ccccc1 | 39.5 | 20.1 | 32.8 | 26.3 | 34.5 | 38.9 | 47.1 | 33.5 | 21.7 | 25.1 | 23.9 | 64.5 |
| O=C(NCCS)C1(c2cc(F)cc(Br)c2)CC1 | 35 | 17.7 | 20.7 | 16.6 | 19 | 17.2 | 35.6 | 26.3 | 11.7 | 16.3 | 10.9 | 23.9 |
| CN(C)c1ccc2cc(C(=O)NCCS)ccc2c1 | 18.6 | 8.4 | 10.3 | 11.9 | 16.9 | 7.6 | 59.7 | 26.3 | 3.5 | 10.3 | 7.8 | 15.3 |
| CCC(C)c1nc(C)c(CC(=O)NCCS)c(C)n1 (stereo unspecified) | 31.2 | 13.3 | 32.7 | 26.3 | 37.4 | 30.9 | 19.5 | 33.9 | 23.3 | 33.5 | 28.9 | 43.6 |
| O=C(CCc1nc(-c2ccc(Br)cc2)no1)NCCS | 26.7 | 6.3 | 14.2 | 7.6 | 10.3 | 8.6 | 15.1 | 30.7 | 4.6 | 7 | 4.1 | 7.5 |
| O=C(CCS)NCc1cn(-c2ccccc2)nc1-c1ccc(F)cc1 |  | 6.4 | 11.8 | 10.3 | 6.9 | 7.5 | 41.4 |  | 11.1 | 5.9 | 4.8 | 14.6 |
| O=C(CCS)NC1CCC(c2nc3ccccc3[nH]2)CC1 (stereo unspecified) |  | 17.2 | 43.3 | 49.4 | 29.9 | 46.2 | 26.4 |  | 33.3 | 38.7 | 34.8 | 63.2 |
| COc1ccccc1C(=O)NCCS | 68.6 | 38.5 | 63.1 | 33.8 | 52.3 | 49.3 | 75.7 | 50.5 | 68.2 | 38.6 | 44.5 | 58.5 |
| Cc1cccc(-c2csc(NC(=O)CCS)n2)c1 |  | 15 | 21 | 18 | 15 | 11.7 | 34.8 |  | 12.5 | 20.8 | 10 | 35.2 |
| O=C(CCS)N1CCC(Nc2ccncc2)CC1 |  | 14.3 | 30.6 | 48.7 | 35.5 | 51.5 | 22.6 |  | 20 | 27 | 34.4 | 58.9 |
| O=C(NCCS)c1cc(-c2ccccc2F)no1 | 12.9 | 11.8 | 7.1 | 6.6 | 14.2 | 7.8 | 35 | 18.9 | 7.6 | 9.2 | 7.5 | 9.9 |
| O=C(CCS)Nc1ccc(OC2CCCC2)nc1 |  | 14 | 17.7 | 16.2 | 14 | 12.9 | 43.9 |  | 15.7 | 18.2 | 15.3 | 32.6 |
| O=C(CCS)Nc1cn(-c2ccccc2)nn1 |  | 9.8 | 14.4 | 24.9 | 12.7 | 13.6 | 57.7 |  | 23.5 | 17.5 | 12.9 | 32.2 |
| O=C(CCS)NCc1cccnc1-n1cccn1 |  | 12.3 | 34.2 | 42.3 | 34.2 | 36.2 | 24.4 |  | 33.6 | 38.4 | 40.4 | 66.9 |
| COc1ccc(CN2CCN(C(=O)CCS)CC2)cc1F |  | 21.8 | 34.7 | 44.2 | 31.3 | 44.4 | 33.9 |  | 27.8 | 38.3 | 37 | 53.9 |

| SMILES | percent labeling [1] [%] | percent labeling [2] [%] | percent labeling [3] [%] | percent labeling [4] [%] | percent labeling [5] [%] | percent labeling [6] [%] | percent labeling [7] [%] | percent labeling [8] [%] | percent labeling [9] [%] | percent labeling [10] [%] | percent labeling [11] [%] | percent labeling [12] [%] |
| --- | --- | --- | --- | --- | --- | --- | --- | --- | --- | --- | --- | --- |
| CC(C)(Cc1c[nH]c2cc(F)ccc12)NC(=O)CCS |  | 14.4 | 25.4 | 24.9 | 20.6 | 34 | 48.8 |  | 19 | 19.8 | 15.5 | 36.6 |
| Cc1cn2cc(CC(=O)NCCS)nc2s1 | 41.3 | 19.3 | 26.9 | 23.4 | 51.5 | 29.7 | 30.7 | 41.2 | 24.5 | 28.5 | 26 | 40.3 |
| O=C(CCS)NCC1CN(c2ccccc2)C(=O)O1 (stereo unspecified) |  | 14.6 | 32.7 | 44.4 | 34.4 | 49.8 | 39 |  | 25.8 | 47.3 | 35.3 | 54.3 |
| O=C(NC1CCN(C(=O)CCS)CC1)c1ccccc1 |  | 11.8 | 34.1 | 45.4 | 34.6 | 42.4 | 34.3 |  | 35.8 | 42.7 | 38 | 57.6 |
| Cc1cn(-c2cccnc2)nc1NC(=O)CCS |  | 15.3 | 27.3 | 33.4 | 32.1 | 29.1 | 25.9 |  | 17.3 | 18.2 | 27 | 46.4 |
| CCOc1ccccc1-c1cc(C(=O)NCCS)[nH]n1 | 19.9 | 11.3 | 18.1 | 10.8 | 24.6 | 11.9 | 53.6 | 30.5 | 11.8 | 19 | 12.2 | 21.5 |
| CCOC(=O)c1nnc(C2CCN(C(=O)CCS)CC2)s1 |  | 10.3 | 24.8 | 30.4 | 19.4 | 31.8 | 18.8 |  | 19.3 | 23.2 | 25.4 | 40.6 |
| CC(NC(=O)CCS)C1(n2ccnn2)CC1 (stereo unspecified) |  | 0 | 31.2 | 35.7 | 26.8 | 30.7 | 11.4 |  | 29.2 | 36.2 | 35 | 40.9 |
| O=C(CCS)N1CC2CCCS(=O)(=O)C2(C(F)(F)F)C1 (stereo unspecified) |  | 8.1 | 38.7 | 28.2 | 30.5 | 37.1 | 17.2 |  | 18.3 | 30.6 | 31.4 | 41.6 |
| Cc1nc(-c2cc(C(=O)NCCS)cs2)cs1 | 31 | 17.3 | 21.2 | 18.3 | 24.6 | 16.6 | 55.4 | 46 | 18.3 | 17.2 | 16.2 | 27.3 |
| O=C(NCCS)c1ccc(-c2ccc3c(c2)OCCO3)s1 | 32.5 | 28.4 | 15.6 | 11.3 | 19 | 10.4 | 79.6 | 28.6 | 17 | 9.7 | 2.6 | 17.3 |
| O=C(NCCS)c1cc(-c2cccc(C(F)(F)F)c2)ccn1 | 13.9 | 10.8 | 10.7 | 8.4 | 9.1 | 8 | 40.8 | 19.2 | 10.9 | 9.1 | 5.6 | 10.1 |
| O=C(NCCS)c1cnc(Oc2ccccc2)cn1 | 14 | 8.2 | 12.1 | 11.2 | 14.9 | 28.7 | 21.2 | 24.4 | 8.1 | 11.7 | 11.1 | 18.8 |
| CC(C)N(Cc1cccs1)C(=O)CCS |  | 23.3 | 50.6 | 37 | 29.4 | 37.9 | 50.6 |  | 35.7 | 34.8 | 32.6 | 61.9 |
| O=C(NCCS)c1sc(-c2ccccc2)nc1C(F)F | 19.9 | 13.6 | 14.8 | 10.7 | 11.9 | 11.6 | 38.8 | 23.2 | 12.4 | 17.6 | 7.6 | 14.2 |
| Cc1oc(-c2ccccc2)nc1CC(=O)NCCS | 45.1 | 19.1 | 28.9 | 26.3 | 57.6 | 37.1 | 43.5 | 36.5 | 16.8 | 29.3 | 22.7 | 38.6 |
| O=C(CN1CC(C(F)(F)F)CCC1=O)NCCS (stereo unspecified) | 27 | 11.2 | 30.8 | 22.6 | 48.9 | 29.3 | 18.6 | 31.7 | 25.6 | 34.5 | 35.2 | 37.7 |
| CC1(C2CC2)NC(=O)N(c2cccc(NC(=O)CCS)c2)C1=O (stereo unspecified) |  | 13.9 | 31.8 | 26 | 31.5 | 26.5 | 39.2 |  | 19.2 | 24.2 | 27.9 | 48.8 |
| CN(C)C(=O)CCn1ccc(NC(=O)CCS)n1 |  | 9.3 | 28 | 36.8 | 29.1 | 34.7 | 16 |  | 34.7 | 29.8 | 28.4 | 50.3 |
| Cc1nc(C(=O)NCCS)c(C)o1 | 44.7 | 25.9 | 31.9 | 29.5 | 34.9 | 28.1 | 27.6 | 39.6 | 31.3 | 35.4 | 39.1 | 35.9 |
| CN(C)Cc1nc(C2(NC(=O)CCS)CCCC2)no1 |  | 6.4 | 34 | 26.9 | 29.1 | 32.8 | 9.9 |  | 14 | 28.8 | 27.2 | 46.1 |
| O=C(NCCS)c1cccc(CN2C(=O)CNC2=O)c1 | 37 | 19.3 | 37.5 | 27.1 | 41.3 | 36 | 29 | 42.8 | 38.5 | 29.8 | 34.6 | 43.6 |
| COC(=O)[C@@H]1C[C@H](N2C(=O)CNC2=O)CN1C(=O)CCS |  | 6.1 | 24.8 | 34 | 33 | 31.8 | 12.1 |  | 18.8 | 27.1 | 35.5 | 39.1 |
